# Measured values: paper PMC10017685 (Nature Communications, 2023)
# Where two headings read alike, the source gives them in different places. Peptide text beside a SMILES is read from it.
# What was measured:
# E. coli ATCC 43827 = format: cell-based, Escherichia coli; conditions: for MIC E. coli ATCC 43927: first experimental round, broth microdilution (CLSI), Mueller-Hinton Broth, 0.5 × 10^5 CFU/mL, 1-[…], 18 h at 37 °C, triplicate
# E. coli ATCC 25922 = format: cell-based, Escherichia coli; conditions: for MIC E. coli ATCC 25922: first experimental round, broth microdilution (CLSI), Mueller-Hinton Broth, 0.5 × 10^5 CFU/mL, 1-[…], 18 h at 37 °C, triplicate
# Description: (§1) Fresh cultures were used in antimicrobial assay. […] Moreover MBC was evaluated. […] All experiments were conducted in triplicate.
# S. aureus ATCC 33591 = format: cell-based, Staphylococcus aureus; conditions: ATCC 33591, 24 h
# Description: as §1
# [1] = system: A. baumannii ATCC BAA 1605; format: cell-based, Acinetobacter baumannii; conditions: ATCC BAA 1605, 24 h
# Description: as §1
# P. aeruginosa ATCC 9027 = format: cell-based, Pseudomonas aeruginosa; conditions: ATCC 9027, 24 h
# Description: as §1
# [2] = Supplementary Data 5F, analogue generation without additional preselection
"E. coli ATCC 43827 MIC (E. coli ATCC 43827; ATCC 43827, 24 h)",S. aureus ATCC 33591 MIC (S. aureus ATCC 33591),"E. coli ATCC 25922 MIC (E. coli ATCC 25922; ATCC 25922, 24 h)",SMILES,E. coli ATCC 43827 MIC (E. coli ATCC 43827; [2]),MIC E. coli ATCC 43927 (E. coli ATCC 43827),E. coli ATCC 25922 MIC (E. coli ATCC 25922; [2]),MIC E. coli ATCC 25922 (E. coli ATCC 25922),"E. coli ATCC 43827 MBC (E. coli ATCC 43827; ATCC 43827, 24 h)",S. aureus ATCC 33591 MBC (S. aureus ATCC 33591),A. baumannii ATCC BAA 1605 MBC [1],"E. coli ATCC 25922 MBC (E. coli ATCC 25922; ATCC 25922, 24 h)",P. aeruginosa ATCC 9027 MBC (P. aeruginosa ATCC 9027)
–,–,–,CC[C@H](C)[C@H](NC(=O)[C@H](Cc1c[nH]c2ccccc12)NC(=O)[C@H](CC(C)C)NC(=O)[C@H](CCCCN)NC(=O)[C@H](CCCCN)NC(=O)[C@H](C)NC(=O)[C@@H](NC(=O)CN)C(C)C)C(=O)N[C@@H](C)C(=O)N[C@@H](C)C(=O)N[C@@H](CCCCN)C(=O)N[C@@H](CCCCN)C(=O)N1CCC[C@H]1C(=O)N[C@@H](C)C(=O)NCC(=O)N[C@@H](C)C(=O)NCC(=O)N[C@@H](CO)C(=O)N[C@@H](CCCCN)C(=O)N[C@@H](Cc1ccccc1)C(=O)N[C@@H](CCCCN)C(=O)N[C@@H](CC(C)C)C(=O)N[C@@H](CC(C)C)C(N)=O [Pex-P1-3],512 µg/mL,512 µg/mL,>512 µg/mL,>512 µg/mL,–,–,–,–,–
–,–,–,CC[C@H](C)[C@H](NC(=O)CNC(=O)[C@H](CO)NC(=O)[C@H](CCCCN)NC(=O)[C@@H](NC(=O)[C@H](CCCNC(=N)N)NC(=O)CNC(=O)[C@@H](NC(=O)[C@H](CC(C)C)NC(=O)[C@@H]1CCCN1C(=O)[C@H](CC(C)C)NC(=O)[C@@H](N)Cc1ccccc1)[C@@H](C)CC)C(C)C)C(=O)N[C@@H](CCCCN)C(N)=O [Temp-P1-4],>512 µg/mL,>512 µg/mL,>512 µg/mL,>512 µg/mL,–,–,–,–,–
4 µg/mL,32 µg/mL,–,"CC[C@H](C)[C@H](NC(=O)CN)C(=O)NCC(=O)N[C@@H](CCCCN)C(=O)N[C@@H](Cc1ccccc1)C(=O)N[C@@H](CC(C)C)C(=O)N[C@@H](CCCCN)C(=O)N[C@@H](CCCCN)C(=O)N[C@@H](C)C(=O)N[C@@H](CCCCN)C(=O)N[C@@H](CCCCN)C(=O)N[C@@H](Cc1ccccc1)C(=O)NCC(=O)N[C@@H](CCCCN)C(=O)N[C@@H](C)C(=O)N[C@@H](Cc1ccccc1)C(=O)N[C@H](C(=O)N[C@@H](CCCCN)C(=O)N[C@H](C(=O)N[C@@H](CC(C)C)C(=O)N[C@@H](CCCCN)C(=O)N[C@@H](CCCCN)C(N)=O)[C@@H](C)CC)C(C)C [Pexiganan, reference compound] (H-GIGKFLKKAKKFGKAFVKILKK-NH2)",–,–,–,–,8 µg/mL,32 µg/mL,2 µg/mL,32 µg/mL,32 µg/mL
–,–,–,"CC[C@H](C)[C@H](NC(=O)[C@H](CCCCN)NC(=O)[C@H](CC(N)=O)NC(=O)[C@@H](NC(=O)[C@@H](NC(=O)[C@H](CCCCN)NC(=O)[C@@H](NC(=O)[C@H](C)NC(=O)[C@@H](NC(=O)[C@H](Cc1c[nH]cn1)NC(=O)CNC(=O)[C@H](C)NC(=O)[C@H](CC(C)C)NC(=O)[C@H](CC(=O)O)NC(=O)[C@H](CCCCN)NC(=O)[C@H](C)NC(=O)[C@H](C)NC(=O)CNC(=O)[C@H](CCCCN)NC(=O)[C@H](CC(C)C)NC(=O)[C@@H](NC(=O)[C@H](CC(=O)O)NC(=O)[C@H](CC(C)C)NC(=O)[C@@H](NC(=O)CN)C(C)C)[C@@H](C)CC)C(C)C)[C@@H](C)O)C(C)C)[C@@H](C)CC)C(N)=O [Syphaxin, reference compound] (H-GVLDILKGAAKDLAGHVATKVINKI-NH2)",–,–,–,–,>512 µg/mL,>512 µg/mL,256 µg/mL,512 µg/mL,>512 µg/mL
32 µg/mL,64 µg/mL,32 µg/mL,"CC[C@H](C)[C@H](N)C(=O)N[C@@H](CC(C)C)C(=O)N[C@@H](CCCNC(=N)N)C(=O)N[C@@H](Cc1c[nH]c2ccccc12)C(=O)N1CCC[C@H]1C(=O)N[C@@H](Cc1c[nH]c2ccccc12)C(=O)N[C@@H](Cc1c[nH]c2ccccc12)C(=O)N1CCC[C@H]1C(=O)N[C@@H](Cc1c[nH]c2ccccc12)C(=O)N[C@@H](CCCNC(=N)N)C(=O)N[C@@H](CCCNC(=N)N)C(=O)N[C@@H](CCCCN)C(N)=O [Omiganan, reference compound] (H-ILRWPWWPWRRK-NH2)",–,–,–,–,32 µg/mL,64 µg/mL,128 µg/mL,64 µg/mL,256 µg/mL
–,–,–,"CC[C@H](C)[C@H](NC(=O)[C@H](Cc1ccccc1)NC(=O)[C@H](CCCCN)NC(=O)[C@H](CC(N)=O)NC(=O)[C@H](CC(C)C)NC(=O)[C@H](CCC(N)=O)NC(=O)CN)C(=O)N[C@@H](CCCCN)C(=O)N[C@@H](CCCCN)C(=O)N[C@@H](C)C(=O)N[C@@H](CCC(N)=O)C(=O)N[C@@H](CCCNC(=N)N)C(=O)N[C@@H](CCCCN)C(=O)N[C@@H](Cc1ccccc1)C(=O)N[C@@H](Cc1c[nH]cn1)C(=O)N[C@@H](CCC(=O)O)C(=O)N[C@@H](CCCCN)C(=O)N[C@@H](Cc1ccccc1)C(=O)N[C@@H](C)C(=O)N[C@@H](CCCCN)C(N)=O [GQ20, reference compound] (H-GQLNKFIKKAQRKFHEKFAK-NH2)",–,–,–,–,>512 µg/mL,>512 µg/mL,512 µg/mL,>512 µg/mL,>512 µg/mL
–,–,–,CC[C@H](C)[C@H](NC(=O)[C@@H]1CCCN1C(=O)[C@H](CC(C)C)NC(=O)[C@@H](N)Cc1ccccc1)C(=O)N[C@@H](CCCCN)C(=O)N[C@@H](CC(N)=O)C(=O)N[C@@H](CCCNC(=N)N)C(=O)N[C@@H](Cc1ccc(O)cc1)C(=O)N[C@@H](C)C(=O)N[C@@H](CO)C(=O)N[C@@H](C)C(=O)N[C@@H](C)C(=O)N[C@@H](CCC(=O)O)C(N)=O [Temp-P1-5],>512 µg/mL,>512 µg/mL,>512 µg/mL,>512 µg/mL,–,–,–,–,–
–,–,–,CC[C@H](C)[C@H](NC(=O)CNC(=O)[C@H](CO)NC(=O)[C@H](Cc1ccccc1)NC(=O)[C@@H](NC(=O)[C@H](CCCNC(=N)N)NC(=O)CNC(=O)[C@@H](NC(=O)[C@H](CC(C)C)NC(=O)[C@@H]1CCCN1C(=O)[C@H](CC(C)C)NC(=O)[C@@H](N)Cc1ccccc1)[C@@H](C)CC)C(C)C)C(=O)N[C@@H](CCCCN)C(N)=O [Temp-P1-2],>512 µg/mL,>512 µg/mL,>512 µg/mL,>512 µg/mL,–,–,–,–,–
128 µg/mL,–,128 µg/mL,"CC[C@H](C)[C@H](N)C(=O)NCC(=O)N[C@@H](CCCCN)C(=O)N[C@@H](CCC(=O)O)C(=O)N[C@@H](Cc1ccccc1)C(=O)N[C@@H](CCCCN)C(=O)N[C@@H](CCCNC(=N)N)C(=O)N[C@H](C(=O)N[C@H](C(=O)N[C@@H](CCC(=O)O)C(=O)N[C@@H](CCCNC(=N)N)C(=O)N[C@H](C(=O)N[C@@H](CCCCN)C(=O)N[C@@H](CCCNC(=N)N)C(=O)N[C@@H](Cc1ccccc1)C(=O)N[C@@H](CC(C)C)C(=O)N[C@@H](CCCNC(=N)N)C(=O)N[C@@H](CCC(=O)O)C(=O)N[C@@H](CC(C)C)C(=O)N[C@H](C(=O)N[C@@H](CCCNC(=N)N)C(=O)N1CCC[C@H]1C(=O)N[C@@H](CC(C)C)C(=O)N[C@@H](CCCNC(=N)N)C(N)=O)C(C)C)[C@@H](C)CC)C(C)C)[C@@H](C)CC [OP-145, reference compound] (H-IGKEFKRIVERIKRFLRELVRPLR-NH2)",–,–,–,–,256 µg/mL,128 µg/mL,32 µg/mL,128 µg/mL,>512 µg/mL
–,–,–,CC(C)C[C@H](NC(=O)[C@H](CCCCN)NC(=O)CNC(=O)[C@H](C)NC(=O)[C@H](CCC(N)=O)NC(=O)[C@H](Cc1c[nH]c2ccccc12)NC(=O)[C@H](CC(C)C)NC(=O)[C@H](CCCCN)NC(=O)[C@H](CCCCN)NC(=O)[C@H](CC(C)C)NC(=O)[C@H](CCC(=O)O)NC(=O)CN)C(=O)N[C@@H](CO)C(=O)N[C@@H](CCC(=O)O)C(=O)N[C@@H](CCC(=O)O)C(=O)N[C@@H](CC(=O)O)C(=O)NCC(=O)NCC(=O)N[C@@H](C)C(=O)N[C@@H](Cc1ccccc1)C(=O)N[C@@H](CCCCN)C(=O)N[C@@H](C)C(=O)NCC(N)=O [Pex-P1-4],>512 µg/mL,>512 µg/mL,>512 µg/mL,>512 µg/mL,–,–,–,–,–
–,–,–,CC[C@H](C)[C@H](NC(=O)CNC(=O)[C@H](CO)NC(=O)[C@H](Cc1ccccc1)NC(=O)[C@@H](NC(=O)[C@H](CCCNC(=N)N)NC(=O)CNC(=O)[C@@H](NC(=O)[C@H](CC(C)C)NC(=O)[C@@H]1CCCN1C(=O)[C@H](CC(C)C)NC(=O)[C@@H](N)Cc1ccccc1)[C@@H](C)CC)C(C)C)C(=O)N[C@@H](CC(C)C)C(N)=O [Temp-P1-1],512 µg/mL,512 µg/mL,512 µg/mL,512 µg/mL,–,–,–,–,–
256 µg/mL,–,256 µg/mL,"CC[C@H](C)[C@H](NC(=O)CNC(=O)[C@H](CO)NC(=O)[C@H](CC(C)C)NC(=O)[C@@H](NC(=O)[C@H](CCCNC(=N)N)NC(=O)CNC(=O)[C@@H](NC(=O)[C@H](CC(C)C)NC(=O)[C@@H]1CCCN1C(=O)[C@H](CC(C)C)NC(=O)[C@@H](N)Cc1ccccc1)[C@@H](C)CC)C(C)C)C(=O)N[C@@H](CC(C)C)C(N)=O [Temporin-A, reference compound] (H-FLPLIGRVLSGIL-NH2)",–,–,–,–,–,–,–,–,–
